# Experimental data as given in PubChem BioAssay AID1460 (National Center for Advancing Translational Sciences (NCATS), 2008).
# “And” between values parts separate entries of the source, which are not always exact repeats. Identical values can stand only once. The campaign covered roughly 270,000 compounds. About 5,800 (2.1%) were called active. Inconclusive results, whose numbers are uncertain, are shown with a selection of clear calls. Calls come from the whole dose curve; as a rule, active = well fitted inhibition curve with a large enough effect; inconclusive = small, poorly fitted or top-dose-only effect; inactive = flat fitted curve, though single readings scatter. Potencies of inconclusive entries are doubtful fits and often do not repeat.
# Target: Microtubule-associated protein tau (Homo sapiens) (UniProt P10636)
# Chain of UniProt P10636 (P10636 whole entry, looked up): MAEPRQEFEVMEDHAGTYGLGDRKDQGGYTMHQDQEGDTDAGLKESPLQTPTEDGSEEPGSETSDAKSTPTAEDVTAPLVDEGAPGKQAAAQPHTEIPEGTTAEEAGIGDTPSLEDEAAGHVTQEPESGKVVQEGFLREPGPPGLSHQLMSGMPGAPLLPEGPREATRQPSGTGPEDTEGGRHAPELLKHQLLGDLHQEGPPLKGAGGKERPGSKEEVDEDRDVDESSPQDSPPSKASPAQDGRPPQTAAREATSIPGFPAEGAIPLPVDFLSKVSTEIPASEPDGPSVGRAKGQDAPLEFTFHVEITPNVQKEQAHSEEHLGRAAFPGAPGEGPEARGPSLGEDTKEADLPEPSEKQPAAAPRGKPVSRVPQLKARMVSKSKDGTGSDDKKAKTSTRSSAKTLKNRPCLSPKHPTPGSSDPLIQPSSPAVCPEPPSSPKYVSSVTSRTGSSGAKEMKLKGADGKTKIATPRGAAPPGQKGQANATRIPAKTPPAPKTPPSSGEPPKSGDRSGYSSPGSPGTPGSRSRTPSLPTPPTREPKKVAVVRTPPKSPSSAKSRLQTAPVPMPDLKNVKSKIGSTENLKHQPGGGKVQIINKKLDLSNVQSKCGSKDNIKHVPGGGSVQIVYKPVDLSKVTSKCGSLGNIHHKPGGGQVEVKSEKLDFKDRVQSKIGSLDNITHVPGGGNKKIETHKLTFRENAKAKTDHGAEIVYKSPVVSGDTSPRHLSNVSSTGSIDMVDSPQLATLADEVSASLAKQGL
# Assay: qHTS for Inhibitors of Tau Fibril Formation, Thioflavin T Binding; note: nearly all actives have a fitted effect of over 55% in size
# Settings: recombinant tau K18 P301L (four-repeat tau fragment), heparin-induced fibrillization, ThT fluorescence; series mostly up to 57.4 µM
# Summary of the method: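 Heparin-induced (20 uM) aggregation of recombinant human K18 P301L tau, 15 uM unlabeled with 0.24 uM labeled, pH 7 acetate buffer, 6 hr at 37 C with compound. Fibrils quantified by 30 uM ThT fluorescence after 1 hr ambient incubation.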
# % is set by controls: 0 for no effect and ±100 for the full control effect; potency is the fitted concentration of half-maximal effect; tags give direction and shape of the fitted curve.
SMILES,Potency,"activity, negative = inhibition"
C[Se]C[C@H](N)C(=O)O,"inconclusive: 3.55 µM [inhibitor, full curve, poor fit]",–
Cc1ccc(-n2c(O)c(/C=N/NC(=O)c3ccncc3)c(=O)[nH]c2=O)cc1,"inconclusive: 22.4 µM [inhibitor, single point]",–
COc1ccc(CC(=O)N2CCN(C)CC2)cc1,"inconclusive: 0.0282 µM [inhibitor, full curve, poor fit]",–
CCOC(=O)c1ccc2[nH]c(-c3ccc(S(=O)(=O)F)cc3)cc(=O)c2c1,"inconclusive: 1.78 µM [inhibitor, full curve, poor fit]",–
Cc1ccc(N2C(=O)NC(=O)/C(=C\c3ccc([N+](=O)[O-])o3)C2=O)cc1,active: 22.4 µM,–
CN1CC[C@@H]2CN3CCc4cccc(c43)[C@H]2C1,"inconclusive: 22.4 µM [inhibitor, single point]",–
CS/C(N)=C(C#N)/C(C#N)=C(\N)SC,"inconclusive: 22.4 µM [inhibitor, partial curve]",–
CCN(CC)CCN=Cc1c(O)n(Cc2ccccc2)c(=O)[nH]c1=O,inactive,–
CN(C(=O)Oc1ccc(C(C)(C)C)cc1)c1ccccc1,inactive,–
C[N+]1(C)C2CCC1CC(OC(=O)C(CO)c1ccccc1)C2 (centres undefined),inactive,–
C=C1C(O)(c2ccccc2)C2CC[N+]1(C)CC2 (centres undefined),inactive,–
Cc1ccc2c(c1)CC1(CN2C)C(=O)NC(=O)N(CCc2ccccc2)C1=O (centres undefined),"inconclusive: 39.8 µM [inhibitor, single point]",–
CCCCN1C(=O)NC(=O)C2(Cc3c(nc4ccccn4c3=O)N3CCc4ccccc4C32)C1=O (centres undefined),"inconclusive: 39.8 µM [inhibitor, single point]",–
CCN(CC)c1nc2c(C)cccn2c(=O)c1C=C1C(=O)NC(=O)NC1=O,"inconclusive: 15.8 µM [inhibitor, partial curve]",–
CC1=CC[C@@H]2[C@@H](C1)c1c(O)cc(CC#CCCCNS(C)(=O)=O)cc1OC2(C)C,"inconclusive: 17.8 µM [inhibitor, partial curve, poor fit]",–
O=c1c2ccccc2[se]n1-c1ccccc1,"inconclusive: 1.26 µM [inhibitor, partial curve] and inconclusive: 4.47 µM [inhibitor, partial curve, poor fit] and inconclusive: 3.55 µM [inhibitor, partial curve]",–
CCc1nnc(NS(=O)(=O)c2ccc(N=Cc3c(O)n(-c4ccc(Cl)cc4)c(=O)[nH]c3=O)cc2)s1,"inconclusive: 12.6 µM [inhibitor, partial curve]",–
CC(C)n1c(=O)c(C=Nc2ccc(Br)cc2)c(O)n(Cc2ccco2)c1=O,"inconclusive: 20 µM [inhibitor, single point]",–
CCCc1cc2c(n1Cc1ccco1)C(C)C1CN(C(=O)c3ccccc3)C(C)(C(=O)OC)C21 (centres undefined),active: 22.4 µM,–
COC(=O)[C@H]1C(=O)c2ccccc2O[C@@](C(=O)OC)(c2ccccc2)[C@@H]1c1ccccc1,–,inactive: -8.04% [at 11.5 µM]
O=C(O)c1ccccc1N=Nc1c(O)[nH]c(=O)[nH]c1=O,inactive,–
O=C(O)c1ccc[nH]c1=S,"inconclusive: 39.8 µM [inhibitor, single point]",–
c1ccc2c(c1)Nc1ccccc1S2,"inconclusive: 17.8 µM [inhibitor, partial curve]",–

SMILES,Potency,"activity, negative = inhibition"
O=C(O)c1nn(Cc2ccc(Cl)c(Cl)c2)c2ccccc12,inactive,–
O=C(COc1ccccc1)N1CCN(C2CCCC2)CC1,inactive,–
COc1ccc(N=C(C)c2c(O)n(C)c(=O)n(C)c2=O)c(OC)c1,inactive,–
Cc1cccc(CN2C(=O)CN=C(c3ccccc3)c3cc(Cl)ccc32)c1,inactive,–
COc1cc2c(cc1O)C[C@H]1c3c(cc(OC)c(O)c3-2)CCN1C,active: 14.1 µM,–
C=C(C)[C@H]1C2C(=O)O[C@H]1[C@H]1OC(=O)[C@@]34O[C@@H]3C[C@]2(O)[C@@]14C,inactive,–
CC(C)CCNC(=O)c1c(N)n(Cc2ccc3c(c2)OCO3)c2nc3ccccc3nc12,"inconclusive: 31.6 µM [inhibitor, partial curve]",–
Cc1cccc(N2C(=O)NC(=O)/C(=C\C=C\c3ccco3)C2=O)c1,active: 10 µM,–
COc1ccccc1N=c1scc(-c2ccc(S(=O)(=O)N3CCCC3)cc2)n1C,"inconclusive: 44.7 µM [inhibitor, single point]",–
CC(C)=CCCC1(C)C=Cc2c(O)c3c(c(CC=C(C)C)c2O1)OC12C(=CC4CC1C(C)(C)OC2(C/C=C(/C)C(=O)O)C4=O)C3=O (centres undefined),active: 22.4 µM,–
Cc1ccnc(-n2c(C)cc(C=C3C(=O)N(C)C(=S)N(C)C3=O)c2C)c1,"inconclusive: 12.6 µM [inhibitor, partial curve]",–
CCOC(=O)c1cc(C)sc1/N=C/C1C(=O)NC(=S)NC1=O,"inconclusive: 14.1 µM [inhibitor, partial curve]",–
O=C(Cn1cc(C(=O)c2ccccc2)c2ccccc21)Nc1ccc(Br)cc1,inactive,–
CC(=O)c1cccc(NC(=O)c2cc3c(s2)-c2c(C)cccc2OC3)c1,"inconclusive: 1.26 µM [inhibitor, full curve]",–
COC(=O)C1=Nc2ccccc2/C1=C\c1c(O)n(-c2ccc(Br)cc2)c(=O)[nH]c1=O,inactive,–
COc1ccc2[nH]cc(CCN(C)C)c2c1,inactive,–
CC[N+](C)(CC)CCC[n+]1c(-c2ccccc2)c2cc(N)ccc2c2ccc(N)cc21,active: 1.26 µM,–
CC1C(=O)OC2C1CC[C@@]1(C)C=CC(=O)[C@@]3(C)O[C@@]213 (some centres undefined),inactive,–
O=C1NC(=O)C(=C/C=C/c2coc3ccc(Br)cc3c2=O)C(=O)N1,active: 7.94 µM,–
Cc1ncsc1CCOC(=O)c1ccc([N+](=O)[O-])cc1,"inconclusive: 25.1 µM [inhibitor, partial curve]",–
CCOC(=O)C1(c2ccccc2)CCN(CC(=O)Nc2cccc3ccccc23)CC1,"inconclusive: 39.8 µM [inhibitor, single point]",–
CCCCCCC(=O)N/N=C/c1c(O)n(C2CC2)c(=S)[nH]c1=O,"inconclusive: 22.4 µM [inhibitor, partial curve]",–
CC1=C(O)C(=O)[C@@H]2O[C@@H]2C1=O,active: 15.8 µM,–

SMILES,Potency,"activity, negative = inhibition"
Cc1cc(C=C2C(=O)NC(=O)NC2=O)c(C)n1-c1ccc2c(c1)OCO2,"inconclusive: 25.1 µM [inhibitor, partial curve]",–
COCCCOc1ccnc(CS(=O)c2nc3ccccc3[nH]2)c1C (centres undefined),active: 10 µM,–
CN1C(=O)C(=Cc2ccc(N(C)C)c([N+](=O)[O-])c2)C(=O)N(C)C1=O,"inconclusive: 6.31 µM [inhibitor, partial curve]",–
Nc1cc(Cl)c2nonc2c1[N+](=O)[O-],active: 11.2 µM,–
Nc1ccccc1N=Cc1c(O)n(CCC2=CCCCC2)c(=O)[nH]c1=O,"inconclusive: 20 µM [inhibitor, partial curve, poor fit]",–
Cn1c(=O)n(C)c2cc(N3CCCC3)c(NC(=O)Nc3ccccc3)cc21,"inconclusive: 31.6 µM [inhibitor, partial curve, poor fit]",–
CCOc1cc(C=C2C(=O)NC(=O)NC2=O)ccc1OCC(=O)N1CCOCC1,"inconclusive: 6.31 µM [inhibitor, partial curve]",–
O=C1Nc2ccccc2C2(CCN(CCc3ccc(C(F)(F)F)cc3)CC2)O1,"inconclusive: 35.5 µM [inhibitor, single point]",–
CCN(CC)P(=O)(c1n(CC)cc[n+]1CC)N(CC)CC,"inconclusive: 5.01 µM [inhibitor, single point]",–
CCCCCc1nc2c(c(=O)c3ccccc3n2C)c(=O)n1C1CCCCCC1,"inconclusive: 20 µM [inhibitor, partial curve]",–
O=c1[nH]c(=S)[nH]c(O)c1N=Nc1ccc(S(=O)(=O)N2CCc3ccccc32)cc1,active: 5.01 µM,–
CN1CCc2nc3sc(C#N)c(N)c3c(-c3cccs3)c2C1,active: 28.2 µM,–
CCCc1[nH][nH]c(=O)c1C(c1ccc(Cl)cc1)C(C#N)C#N (centres undefined),"inconclusive: 6.31 µM [inhibitor, partial curve, poor fit]",–
CS(=O)(=O)NNP(=O)(NNS(C)(=O)=O)NC(=O)c1ccc(Br)cc1,inactive,–
O=C1NC(=O)N(c2ccccc2)C(=O)/C1=C/c1coc2ccc(O)cc2c1=O,"inconclusive: 17.8 µM [inhibitor, partial curve]",–
CCOc1ccc(CCNC(=O)c2cc3c(-c4cccc(OC)c4)nn(C)c3s2)cc1OCC,"inconclusive: 12.6 µM [inhibitor, partial curve, poor fit]",–
Cc1cccc(Oc2nc3c(C)cccn3c(=O)c2/C=C(\C#N)c2nc3ccccc3s2)c1,"inconclusive: 25.1 µM [inhibitor, partial curve, poor fit]",–
COCCNP(=O)(c1ccccc1)c1nc2ccccc2s1 (centres undefined),inactive,–
CCOP(=O)(OCC)/C(=N/OC(=O)c1ccccc1C)C(N)=O,"inconclusive: 14.1 µM [inhibitor, partial curve]",–
O=C1NC(=S)N(c2ccc(F)cc2)C(=O)/C1=C\c1ccoc1,active: 17.8 µM,–
O=C(N/N=C/c1c(O)n(CCc2ccc(F)cc2)c(=O)[nH]c1=O)c1ccncc1,"inconclusive: 2.24 µM [inhibitor, full curve]",–
CN[C@@H](C)[C@H](O)c1ccccc1,"inconclusive: 3.55 µM [inhibitor, partial curve]",–
CNC(=O)CSP(=S)(OC)OC,"inconclusive: 14.1 µM [inhibitor, partial curve]",–
